Results published in patent publication US20130123253A1, “MODULATORS OF CENTRAL NERVOUS SYSTEM NEUROTRANSMITTERS” (HUMAN BIOMOLECULAR RESEARCH INSTITUTE, priority 2004, published 2013).

Key:
[1] = target: T1, human dopamine transporter (hDAT) (Homo sapiens, UniProt Q01959); assay: cell-based
[2] = target: T2, human norepinephrine transporter (hNET) (Homo sapiens, UniProt P23975); assay: cell-based
[3] = target: T1, human dopamine transporter (hDAT); assay: Inhibition of [125I]RTI-55 binding in HEK-hDAT cell membranes; parameters: expressed in transfected cells
[4] = target: T2, human norepinephrine transporter (hNET); assay: Inhibition of radioligand binding in HEK-hNET cell membranes; parameters: expressed in transfected cells
[5] = Table 17, mean ± S.E.M., read-out: Binding (Ki, nM) hDAT
[6] = Table 6, read-out: Binding (Ki, nM) hDAT
[7] = Table 6, read-out: Binding (Ki, nM) hNET
[8] = Reuptake (Kr, nM) hDAT, Table 1
[9] = Reuptake (Kr, nM) hNET, Table 1
[10] = Table 1, read-out: Binding (Ki, nM) hDAT
[11] = Table 1, read-out: Binding (Ki, nM) hNET
[12] = read-out: Binding (Ki, nM) hDAT
[13] = read-out: Binding (Ki, nM) hNET

T1 sequence (Q01959 whole entry): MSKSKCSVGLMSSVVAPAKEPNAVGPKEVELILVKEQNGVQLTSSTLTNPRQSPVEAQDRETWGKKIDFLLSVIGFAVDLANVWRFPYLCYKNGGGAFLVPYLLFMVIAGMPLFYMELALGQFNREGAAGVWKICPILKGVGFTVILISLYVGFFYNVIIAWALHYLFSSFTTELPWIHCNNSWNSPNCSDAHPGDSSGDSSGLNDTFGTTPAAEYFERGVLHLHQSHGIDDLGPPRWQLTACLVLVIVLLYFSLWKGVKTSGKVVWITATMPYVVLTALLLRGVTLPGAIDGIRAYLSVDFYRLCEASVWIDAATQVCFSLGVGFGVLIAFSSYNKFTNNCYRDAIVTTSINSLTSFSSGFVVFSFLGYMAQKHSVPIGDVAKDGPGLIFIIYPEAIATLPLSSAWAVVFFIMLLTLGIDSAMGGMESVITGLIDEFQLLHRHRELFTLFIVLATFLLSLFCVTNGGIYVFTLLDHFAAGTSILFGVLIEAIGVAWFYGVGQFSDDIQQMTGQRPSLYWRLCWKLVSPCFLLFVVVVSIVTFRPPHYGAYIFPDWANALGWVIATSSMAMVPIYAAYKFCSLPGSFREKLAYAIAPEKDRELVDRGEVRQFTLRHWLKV
T2 sequence (P23975 whole entry): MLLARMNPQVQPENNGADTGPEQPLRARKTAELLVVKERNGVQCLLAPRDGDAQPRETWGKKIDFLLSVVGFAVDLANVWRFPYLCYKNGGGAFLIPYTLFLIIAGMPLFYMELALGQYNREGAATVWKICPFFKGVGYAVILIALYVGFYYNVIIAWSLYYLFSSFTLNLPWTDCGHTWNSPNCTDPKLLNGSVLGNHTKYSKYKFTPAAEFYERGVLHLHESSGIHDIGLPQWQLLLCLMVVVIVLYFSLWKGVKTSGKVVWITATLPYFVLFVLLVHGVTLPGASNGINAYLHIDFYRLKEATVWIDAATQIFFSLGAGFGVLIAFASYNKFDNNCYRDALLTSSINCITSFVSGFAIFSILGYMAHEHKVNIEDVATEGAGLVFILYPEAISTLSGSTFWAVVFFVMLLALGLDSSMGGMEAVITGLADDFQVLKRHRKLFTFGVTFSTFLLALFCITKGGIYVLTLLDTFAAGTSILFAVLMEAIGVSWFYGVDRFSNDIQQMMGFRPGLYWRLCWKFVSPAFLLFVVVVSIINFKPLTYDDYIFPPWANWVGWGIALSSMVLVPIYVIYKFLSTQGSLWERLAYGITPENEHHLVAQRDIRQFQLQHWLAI

Ki [1, 8] | Ki [2, 9] | Ki [3, 10] | Ki [4, 11] | SMILES | also measured
– | – | – | – | COc1ccc(C2=NNC(=O)C3CC=CCC23)cc1OC (racemic) [Compound 19, 4-(3,4-Dimethoxy-phenyl)-4a,5,8,8a-tetrahydro-2H-phthalazin-1-one, reference compound] | IC50 [1]: > 100000 nM; IC50 ([2]; Reuptake (IC50) hNET): > 100000 nM; Ki ([3]; Binding (Ki) hDAT): > 100000 nM; Ki ([4]; Binding (Ki) hNET): > 100000 nM
– | – | – | – | COc1ccc(C2=NNC(=O)[C@@H]3CC=CC[C@H]23)cc1OC (racemic) [Compound 19, 4-(3,4-Dimethoxy-phenyl)-4a,5,8,8a-tetrahydro-2H-phthalazin-1-one, reference compound] | IC50 [1]: > 100000 nM; IC50 ([2]; Reuptake (IC50, nM) hNET): > 100000 nM; Ki ([3]; Binding (Ki, nM) hDAT): > 100000 nM; Ki ([4]; Binding (Ki, nM) hNET): > 100000 nM
– | – | – | – | COc1ccc(F)cc1[C@@H]1CC[C@@H](CCNCC[C@@H]2CC[C@@H](c3cc(F)ccc3OC)O2)O1 (relative stereo) [N,N-bis (trans-5′-(2″- methoxy-5″-fluoro-phenyl-2′-tetra-hydrofuryl)ethyl) Amine] | Ki ([1]; Reuptake (kup, nM) hDAT, Table 2): 1390 nM; Ki ([2]; Reuptake (kup, nM) hNET, Table 2): 2940 nM; Ki ([3]; Table 2, read-out: Binding (ki, nM) hDAT): 1390 nM; Ki ([4]; Table 2, read-out: Binding (ki, nM) hNET): 2640 nM
– | – | – | – | COc1ccc(C2=NN(CCCCCNCCC(Oc3ccc(C(F)(F)F)cc3)c3ccccc3)C(=O)C3CC=CCC23)cc1OC (single isomer, unassigned) [23(S), 4-(3,4-Dimethoxy-phenyl)-2-{5-[3-phenyl-3-(4-trifluoromethyl-phenoxy)-propylamino]-pentyl}-4a,5,8,8a-tetrahydro-2H-phthalazin-1-one] | IC50 ([2]; Reuptake (IC50) hNET): > 10000 nM; Ki [3, 5]: 3130 ± 194 nM; Ki ([4]; Binding (Ki, nM) hNET): 4150 ± 693 nM
– | – | – | – | COc1ccc(C2=NN(CCCCCNCCC(Oc3ccc(C(F)(F)F)cc3)c3ccccc3)C(=O)C3CC=CCC23)cc1OC (single isomer, unassigned) [24(R), 4-(3,4-Dimethoxy-phenyl)-2-{5-[3-phenyl-3-(4-trifluoromethyl-phenoxy)-propylamino]-pentyl}-4a,5,8,8a-tetrahydro-2H-phthalazin-1-one] | IC50 ([1]; Reuptake (IC50, nM) hDAT, Table 17, mean ± S.E.M.): 6670 ± 1630 nM; IC50 ([2]; Reuptake (IC50, nM) hNET): > 8280 nM; Ki [3, 5]: 3300 ± 408 nM; Ki ([4]; Binding (Ki, nM) hNET): 5830 ± 1750 nM
– | – | – | – | CN1CCC[C@H]1C=Cc1ccccc1 (stereo in doubt) [1-Methyl-2-Styrenyl Pyrrolidine] | IC50 [1]: 1030 nM; IC50 ([2]; Reuptake (IC50, nM) hNET, Table 6): 250 nM; Ki [3, 6]: 3240 nM; Ki [4, 7]: 2780 nM
– | – | – | – | C(=C[C@@H]1CCCN1)c1ccccc1 (stereo in doubt) [2-Styrenyl Pyrrolidine] | IC50 ([1]; Reuptake (IC50, nM) hDAT, Table 6): 1270 nM; IC50 [2]: 104 nM; Ki [3, 6]: 4130 nM; Ki [4, 7]: > 10000 nM
– | – | – | – | COc1ccc(F)cc1CCC1CCC(CCNCCCCCN2N=C(c3ccc(OC)c(OC)c3)C3CC=CC[C@H]3C2=O)O1 (stereo in doubt) [Compound 21, 4-(3,4-Dimethoxy-phenyl)-2-[5-(2-{5-[2-(5-fluoro-2-methoxy-phenyl)-ethyl]-thtrahydro-furan-2-yl}-ethylamino)-pentyl]-4,5,8,8a-tetrahydro-2H-phthalazin-1-one] | IC50 ([1]; Reuptake (IC50, nM) hDAT, Table 3, mixtures of diastereomers): 5390 ± 1060 nM; Ki ([3]; Table 3, mixtures of diastereomers, read-out: Binding (Ki, nM) hDAT): 872 ± 65 nM
> 10000 nM | > 10000 nM | 142000 nM | 72100 nM | NCC1CCC(CCC2CCCO2)O1 (centres unmarked) [2-(amino-methyl)-5-(-2″- tetrahydrofuryl-2′-ethyl)tetra-hydrofuran.] | –
655 nM | 665 nM | 1490 nM | 1610 nM | NCCC1CCC(CCc2ccc3ccccc3c2)O1 (centres unmarked) [2-(aminoethyl)-5-(2′-naphthylethyl) tetrahydrofuran] | –
3280 nM | > 10000 nM | > 10000 nM | > 10000 nM | NCCC1CCC(CCc2ccc(F)cc2)O1 (centres unmarked) [2-(aminoethyl)-5-(4′-fluoro-phenethyl) tetrahydrofuran] | –
> 10000 nM | > 10000 nM | > 10000 nM | 6010 nM | COc1ccc(CCC2CCC(CCN)O2)cc1 (centres unmarked) [2-(aminoethyl)-5-(4′-methoxy-phenethyl) tetrahydrofuran] | –
> 10000 nM | 919 nM | 7610 nM | > 10000 nM | Cc1ccc(CCC2CCC(CCN)O2)cc1 (centres unmarked) [2-(aminoethyl)-5-(4′-methylphenethyl) tetrahydrofuran] | –
1900 nM | 6090 nM | 7900 nM | 1270 nM | NCCC1CCC(CCc2ccc(-c3ccccc3)cc2)O1 (centres unmarked) [2-(aminoethyl)-5-(4′-phenylphenethyl) tetrahydrofuran] | –
> 10000 nM | 556 nM | > 10000 nM | > 10000 nM | CC(C)(C)c1ccc(CCC2CCC(CCN)O2)cc1 (centres unmarked) [2-(aminoethyl)-5-(4′-t-butyl-phenethyl) tetrahydrofuran] | –
> 10000 nM | > 10000 nM | > 10000 nM | > 10000 nM | NCCC1CCC(CCc2ccc(OC(F)(F)F)cc2)O1 (centres unmarked) [2-(aminoethyl)-5-(4′-trifluoro-methoxyphenethyl)tetra-hydrafuran] | –
> 10000 nM | > 10000 nM | > 10000 nM | > 10000 nM | NCCC1CCC(CCC2CCCCC2)O1 (centres unmarked) [2-(aminoethyl)-5-(cyclohexylethyl) tetrahydrofuran] | –
603 nM | 339 nM | > 10000 nM | 439 nM | COc1ccc2ccccc2c1C1CCC(CN)O1 (centres unmarked) [2-(aminomethyl)-5-(2′-methoxy-1′-naphethyl) tetahydrofuran] | –
28 nM | 58 nM | 512 nM | – | NCC1CCC(c2ccc3ccccc3c2)O1 (centres unmarked) [2-(aminomethyl)-5-(2′-naphthyl) tetrahydrofuran] | –
337 nM | 94 nM | 6850 nM | 305 nM | Cc1ccc(C2CCC(CN)O2)cc1F (centres unmarked) [2-(aminomethyl)-5-(3′-fluoro-4′-methylphenyl) tetrahydrofuran] | –
1880 nM | – | 1300 nM | 576 nM | NCC1CCC(CCCc2ccccc2)O1 (centres unmarked) [2-(aminomethyl)-5-(3′-phenyl-propyl) tetrahydrofuran] | –
167 nM | 60 nM | 6120 nM | – | NCC1CCC(c2ccc(Br)cc2)O1 (centres unmarked) [2-(aminomethyl)-5-(4′-bromophenyl) tetrahydrofuran] | –
2360 nM | 526 nM | 7290 nM | 880 nM | Cc1cc(CCC2CCC(CN)O2)ccc1F (centres unmarked) [2-(aminomethyl)-5-(4′-fluoro-3′-methylphenethyl) tetrahydrouran] | –
2110 nM | 2120 nM | – | – | COc1ccc(CCC2CCC(CN)O2)c2ccccc12 (centres unmarked) [2-(aminomethyl)-5-(4′-methoxy-1′-naphthylethyl) tetrahydrofuran] | –
867 nM | – | 1500 nM | 2740 nM | NCC1CCC(CCc2ccccc2)O1 (centres unmarked) [2-(aminomethyl)-5-(phenethyl) tetrahydrofuran] | –
876 nM | – | 1760 nM | 1910 nM | NCC1CCC(Cc2ccccc2)O1 (centres unmarked) [2-(aminomethyl)-5-benzyl tetrahydrofuran] | –
2570 nM | 317 nM | > 10000 nM | 405 nM | NCC1CCC(C2CCCCC2)O1 (centres unmarked) [2-(aminomethyl)-5-cyclohexyl tetrahydrofuran] | –
– | – | – | – | CNCCC1CCC(CCc2cc(F)ccc2OC)O1 (centres unmarked) [Compound 24, (2-{5-[2-(5-Fluoro-2-methoxy-phenyl)-ethyl]-tetrahydro-furan-2-yl}-ethyl)-methyl-amine] | IC50 [1]: > 10000 nM; Ki ([3]; Binding (Ki, nM) hDAT): > 10000 nM

SMILES | Ki [1, 8] | Ki [2, 9] | Ki [3, 10] | Ki [4, 11] | also measured
COc1ccc(F)cc1[C@@H]1CC[C@@H](CN)O1 (stereo in doubt) [trans-2-(aminomethyl)-5-(2′-methoxy-5′-fluorophenyl) tetrahydrofuran] | > 10000 nM | – | – | – | Ki ([3]; Binding (Ki, nM) hDAT): > 10000 nM
NCCC1CCC(CCc2cccnc2)O1 (centres unmarked) [2-(aminoethyl)-5-(3′-pyridylethyl) tetrahydrofuran] | > 10000 nM | > 10000 nM | > 10000 nM | 5340 nM | –
Cc1cc(CCC2CCC(CCN)O2)ccc1F (centres unmarked) [2-(aminoethyl)-5-(4′-fluoro-3′-methylphenethyl) tetrahydrofuran] | 509 nM | 374 nM | – | 882 nM | Ki [3, 12]: 6380 nM
NCCC1CCC(CCc2ccc(O)cc2)O1 (centres unmarked) [2-(aminoethyl)-5-(4′-hydroxy-phenethyl) tetrahydrofuran] | 2530 nM | – | 5500 nM | – | Ki ([2]; Reuptake (Kr, nM) hNET): 2130 nM; Ki [4, 13]: 5950 nM
NCC1CCC(CCc2cccnc2)O1 (centres unmarked) [2-(aminomethyl)-5-(3′-pyridylethyl) tetrahydrofuran] | – | > 10000 nM | – | 8520 nM | –
NCC1CCC(c2ccc(Cl)cc2)O1 (centres unmarked) [2-(aminomethyl)-5-(4′-chlorophenyl) tetrahydrafuran] | 313 nM | – | – | – | Ki ([2]; Reuptake (Kr, nM) hNET): 61 nM; Ki [3, 12]: 6830 nM; Ki [4, 13]: 1110 nM
COc1ccc(C2CCC(CN)O2)cc1 (centres unmarked) [2-(aminomethyl)-5-(4′-methoxy-phenyl)tetra-hydrofuran] | 668 nM | 92 nM | – | 2010 nM | –
CC(C)(C)c1ccc(C2CCC(CN)O2)cc1 (centres unmarked) [2-(aminomethyl)-5-(4′-t-butylphenyl) tetrahydrofuran] | 4300 nM | 2320 nM | – | 4540 nM | –
NCC1CCC(c2ccccc2)O1 (centres unmarked) [2-(aminomethyl)-5-phenyltetra-hydrofuran] | 147 nM | – | – | – | Ki [3, 12]: 916 nM; Ki [4, 13]: 2770 nM
COc1ccc(F)cc1CCC1CCC(CN)O1 (centres unmarked) [2-aminomethyl-5-(2′-methoxy-5′-fluorophenethyltetrahydrofuran] | 887 nM | – | – | – | Ki ([3]; Binding (Ki, nM) hDAT): > 10000 nM

Read-outs that look alike come from different tables or passages of the source.
